# This is one part of the list. At the low end of the ranking the order means little. The protein was read in a cell extract, so binding may be indirect.
# Biological target: T1, HNF4alpha8 (COS-7 nuclear extract) (UniProt P41235-5)
# T1 sequence: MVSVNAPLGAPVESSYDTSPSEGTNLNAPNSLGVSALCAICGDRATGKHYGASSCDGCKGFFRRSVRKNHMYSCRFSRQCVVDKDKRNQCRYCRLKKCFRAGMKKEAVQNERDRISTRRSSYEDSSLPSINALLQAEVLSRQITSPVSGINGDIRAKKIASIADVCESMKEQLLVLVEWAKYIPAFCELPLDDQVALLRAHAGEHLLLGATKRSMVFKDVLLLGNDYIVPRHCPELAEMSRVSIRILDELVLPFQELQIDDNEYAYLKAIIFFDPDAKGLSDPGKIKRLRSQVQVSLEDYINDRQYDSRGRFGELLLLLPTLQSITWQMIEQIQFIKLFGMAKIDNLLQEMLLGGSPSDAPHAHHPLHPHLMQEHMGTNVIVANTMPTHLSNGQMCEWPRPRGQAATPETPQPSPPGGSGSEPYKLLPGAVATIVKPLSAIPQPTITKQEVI
# Assay: protein-binding microarray
# Conditions: COS-7 nuclear extract on double-stranded Agilent 4x180k PBM; binding buffer, salt, pH and temperature not given; high values mean tight binding; double strand, one strand shown; sequences stand for … in …GCCTAGGGAGATTAGAGTATCGGTCGA
row,Sequence,binding signal (log2 normalized intensity)
1,ACCAGTGGACCATGAGAAACATCCACATGT,-1.13
2,TCTGTCTTTGATCTGCTATCTCAGATAGCT,-1.35
3,GGCTGCATTCCCAGATGGTTAGGTATTTTA,0.331
4,CTAGCTGTGTAACCCTGGACAAGTTATCTT,0.887
5,CACCCCCATCTATGCACTCTCACCTTGGGG,0.395
6,GGGAAGAGAGTATGGGATGATCAGTAAGGA,-0.104
7,TGTGTGTGTGTGGTGTGTGTGTGTGTGTTT,3.3
8,ATGGGGGAAGGGCTGGAGACGCAGGAGATG,-1.34
9,AGGTCTCTGCATACCAGGTAAGTGACATGC,0.69
10,ACATTTGCGCAAACATAAAGGCAAAGGTCA,5.6
11,ACTTTCAACAAGGTGGAGACCTCTGCAGGA,-1.02
12,CGTTGGTGCTCCCCCACCCTGTGTCAGCAT,4.05
13,AGACACTTTGGCTCCAGAGTCCACATTCTT,3.33
14,CATGATTGTAGCCAAACTCACAGCTTTTAT,-0.795
15,GGGCATTCTGGAGTTTGGAACCAAATCAGC,2.89
16,TCAGATGCAGTCCAGAAGGTCAGGACCACA,1.36
17,GACTTGAGAAGACATAGTTTTTGCCCTTAA,2.7
18,TGCTTCCAGTTCCATAATCCCCGAATGTCC,2.97
19,AGGGGCATTTGAGTACATGCCTCTCCCAGT,0.468
20,TTTGCAAATGACTTTGAGAGTAAGTTTCTG,-1.22
21,CCCTCCCCCCACTCAAAATAGGAGTTAAGG,2.69
22,TTAAGCCAAAGTCCAAGTTGGTGAGAACAG,3.07
23,TACCTGTGCAGATATTTAACCTTTGATCTG,8.15
24,AAGGACTGGACCACCTCCTCAAAGAGCAGA,-0.817
25,AACCTGCTGCAGGAGAGATGGTCAGATTTT,0.707

row,Sequence,binding signal (log2 normalized intensity)
1,CTGGCCCACTGTTCTCTCTAGAGAGAACAG,-1.31
2,GCAAACATTTCACTTTGCTCCCTCCTTCAG,0.734
3,CTGCCTTCCTGCTCATGCAGCTGCTGCCCA,-1.29
4,TTTGCCTGGTGATCTTTGTTAGACCCTTAT,2.77
5,TAGTAAATATTAGGCAAGCTAAGATGAGGG,-1.11
6,TCATGATGGGAAGCCTCAGGAGTTGGAGGA,-1.31
7,GGGGAGCAGGCAGAGGAACAGAGGGGTCTG,-1.12
8,GATATTTTGAGGGCTCAAAGGTTACCACCC,5.08
9,GAAAAGAAATGTAGTGACAGAAGGGAGAGT,-1.37
10,CGACTGGGCCAGGAGCAGGAGCAGAAGCAG,-1.25
11,GGCTTTATCTGTGAGAATCCCAGCTCGTGG,-1.29
12,TTATCTGAATCTGGAATCACGTTCGCCTAA,-1.21
13,TTTCTGAACACTCCAAGGTGTCCAGCTTAG,-1.23
14,AGGTGCAAAGTACATATTTACTTACCTTTT,3.68
15,CCTGAAAGGCCAAGCCAGTTTCCAGGGAGG,-1.2
16,AATGATACCAACAGGCTTAACATAAAGGGT,-1.19
17,GTCAGGGTTCTCAGACCACCAGCTGCTTCG,-1.34
18,AGCAAGAATGTAAATAGCTAGGTACTTTGA,1.94
19,ATATTGCAGTGTAGATTAAATCCTCGAAGA,-1.13
20,GATTTCTAGTTAATATCTAAGATGTAGCTG,0.125
21,TACTGGATATAGCCAGATGTCCTTTGAAGA,1.41
22,AATCTGGCTAATGCATGTCCCTCCTCAACC,0.982
23,GGTGGACATGGTTCACTGATTACTGGATGT,0.982
24,GACAAAGTGTCACAAACTATCAGTGAAGAG,-0.99
25,ATTCTCTTATCTACTTTAAGATTTGACCCT,5.76

row,Sequence,binding signal (log2 normalized intensity)
1,CCCAGAGGTCACACTGATACAGCATGGCCC,-0.36
2,GGTTCCCCTTCCCCCAACAGGGCTCCTGTT,3.4
3,GCCTCAGATTAATGTCAGCCTGCTCAGGGA,-1.53
4,CCGCCTCCACACCCCAGCCTGCCCTCCTAG,3.47
5,GGCAAAATGGCATATCTAGGATCACGCCAT,-1.43
6,ACTGCAGAAACTCTGCAGTAACTGTCATGG,0.255
7,ATGATCAAAGGTTAGTCTTAGGACCACATG,3.21
8,TGAGTGCTTCTTGAATGAAGGAACAGGTTC,0.579
9,ACAGAAATCATGTAGCCAGATAAGAGCTAT,-1.36
10,AGCCCAGAGACAGTGGAATCTACAGAATTC,-1.35
11,CGCCCAGTCCCGCCGCTTCCCCACCCCCTC,5.63
12,GCGGGGAGTCTCCTGGGTAATCACCAAACT,-1.4
13,TGTGACCTCCAACTATTGCTCAGCAGGGAG,-1.26
14,AGGCAGCTAGGCAGGCTCAGAACTACCAAT,-1.41
15,CTGCAATCAGAGCTGGATGTGAGTTATGAC,0.899
16,CTGAACCTCTGTCTCTCAGGCACAGCTCGA,-1.27
17,AGTTTGCTGTCTTGACTTGGTTCGGGTTTT,1.69
18,ACCTCCCGTGCCCCCTTTTGCTTTCCGTTA,2.36
19,AGTGTCTCTACTGTCCATCTTTTGCCCCTC,4.79
20,CTCAGAAATCCCCAAACTTAAAAGAAGCTA,-1.27
21,ATTGGGATGGAGTAACTTGCTAAGTATAAA,-1.12
22,TAGAGTGGAGTGAAGTAAGAGTAGCAGAAG,-1.43
23,GAACTTTGTTTGTGTTTCCCTCCCTGGTAT,3.26
24,CCCCAGAGGAAGACATCATATTTGTTATAT,0.792
25,ACACAGGAAGGGGGATGTCTTTTAGAAGCT,-1.25

row,Sequence,binding signal (log2 normalized intensity)
1,AAGATAATGGGTCCGAAGGTCAGCTGACCA,5.57
2,AGAGCCCCCTTGATGCATCAGACCCCTGAG,4.42
3,CATAAAACATTCTATTCTATCTGTATTCTG,0.74
4,GTTTTTGATTTTGCAGGCTGATAGGCAGAA,-0.169
5,TTCCCTTTATTTAGCCTCACTAAGATAGGG,0.286
6,GTTAATTATAATCGCAGAATAAACGCTGAA,-1.32
7,GGCACCAACACTTCCCAATCAGAAACCGGG,-1.35
8,TGATTACACAGGCCTTATAGGGCATACCCT,0.136
9,CCTTGCACTATTGACCCAGTGAAACAACAC,2.28
10,GCCAAACTCTCACTCTACTCTCTTTGGAGT,-0.0021
11,TTGTGGCATCAGGGTCCACAAGGGTTTAAA,2.52
12,TAGACTTTGCTTTCTTGGAGGTTAACATTT,2.31
13,CATGCTCTTGGAATGTTGAACCTTTCTTTG,3.19
14,TTTATAATCCTAGCTTGGTTTTTCTGGGAC,0.942
15,ACTGTCTGCTATGTGTATATGAGTGTATAG,1.74
16,AAGGTACTTATCAGAGGAAATTCAGATCAA,-1.11
17,ACGAAGGCATTCTTAACAAAACCTGTTTAG,-1.38
18,CAATAATCTTTGCCCTTGAAGATACAGTTA,1.9
19,CCTTGAAACCCCTCCTTACAGTGCCCTCTG,4.3
20,TTTTTTCTTATCTCACTGGATGTGTACCTC,2.4
21,CCCACAGGGGTAGAAGCTGAGCAGCAATCA,-1.37
22,GATGGCTCTGCAGAGGCTTCCTCTTTGGTG,-1.32
23,CAGCTCCTCTCCTCCATGGCCTGGGGCCCT,-1.29
24,ACACACTCACGGACCCTGTTACCACACCAC,-0.557
25,CAAATTTATATCAGAGGAATGTCTGACCAA,1.17

row,Sequence,binding signal (log2 normalized intensity)
1,TGTAAACATGTGAGGAAGGCTCTTTGTTCA,0.621
2,CCGCCGCTAGGTGGCGGGCTGGCTCAGGAC,-1.37
3,ACCTTTGGTTAACTTCTTAACTTGGTTTCC,1.23
4,GGCCTCCCCATCCTCATGACAGTACCTCTC,2.55
5,GCAGCTAGCTCCAGTTGGTTGCTAAGAGAC,-1.38
6,TCCCAAGCATGTTTGGTGACCCGTGACCCT,5.63
7,CTCCTCCTCGTGAGTTGGAGACAGGAGAGG,-1.18
8,GACCCTTCATAGCTTACTTGACAAATGGGG,1.02
9,GGAATGTGACCTTAGACCCCTGAATAGGTC,5.67
10,AGTCAGTTTAGTCCTGGATGACCCAGATAG,1.97
11,TAGATAGGAATCTGGATGGCTGAGCTGTAA,-1.01
12,ATTTACCGTCTCTCACCAAATCCCTGCCCA,0.677
13,ACTGTTTGTGCAGAGGAGATCAGAGGAGGC,-1.33
14,GACTCAGCTCCCATAGAGTCCACCACTGAC,1.18
15,ACCACAAAGCAGTGAGTGAAACATCCCACT,-1.37
16,GCAGGGCTACTGTGGTTCCCAAGAAGAGCC,-1.34
17,AAGTTTAATCCTCTCACCCAAGATCAAAGA,2.82
18,TCTGCTACTAACTGCATGACTTCAGAAAGT,-1.22
19,AAAGGATCAACTTTCAGAAGGGGACAAGCA,-1.29
20,GAAGGCTCCCAAGGTATCCTCCTAGAGTCC,1.07
21,ACAAATTAGACAAGGTTTGTAACAAGTGCT,-1.36
22,CGAAGAGCAGCCAGCTGCAGAGGAAGGACA,-1.28
23,GACGACTGTCTGCCATGGGCCTGGCTGAGC,-1.22
24,AACTACAGTTGACCTTTGAACACCACAAGT,8.13
25,ATACAAACAAATTGTGTGCAACAGGAGCCC,-1.36

row,Sequence,binding signal (log2 normalized intensity)
1,TTACTTTTGCAAGGTTTGTTCTTATCATGC,0.712
2,CAGTTTATTTACTGTCCTCAAACTGTCACC,0.783
3,CAGATCACATTGTTTTGGAGTTAGCTGTCT,0.651
4,CCCAGTTGCCTTCCTGTTAGATAGAGGAGT,-0.191
5,CAGGTGTGTGGCATCTTGGGGTCAAGGCCT,3.43
6,ACCTTATCAAGTCCGAACTCACTACAAACG,-1.29
7,AGCTCTTGGGGAACAATCGCCACTGATTGA,-1.4
8,TTGAGGCCTTCGTTGGAAACGGGATTTCTT,-1.13
9,AGAGGGAAGACCAAAGGCCAAAGAGCAAAG,1.1
10,CACCTCTTCAGATAGCCTTTGCCTCCACCT,1.24
11,TTTGGTGAGGCCCCAGTGTCAATTCTCATT,1.38
12,ATTGATTGGGACCTGAGAACAAACAATGGT,-0.195
13,CAGGTGCTGGGATGATTCCCTTATCTTCTC,0.155
14,GCCCCTGATGTGATGTAATCAAATGTACAC,2.06
15,CCCATCTGGGACTTCAAAGCGCAGCGCGGG,-1.18
16,CAATCAGAAACCGGGCCAATGGGTTCCCTG,-1.34
17,CCGGAATTTCCTCCTGGCAGAGCATAGAAG,-1.35
18,AGTGTGACTCATCAATCTGGAATTACCTGT,0.605
19,CAATTTCCAGGAGTATGTGTTTGCTTTACC,0.577
20,GAAGAGACAGCTGGGCCCTGCCTGACCTGC,1.81
